Laboratory results as given in PubChem BioAssay AID902 (National Center for Advancing Translational Sciences (NCATS), 2007).
Screen size: about 130,000 compounds; about 1,900 (1.5%) were called active. This list was built around the results that the source calls inconclusive (neither active nor inactive); the mix of calls is not that of the screen. Calls follow the shape of the dose curve; as a rule, active = well fitted cell-killing curve with a large enough effect; inconclusive = small, poorly fitted or top-dose-only effect; inactive = no such curve, though single readings can be large or run the other way. Where the call is inconclusive, the potency comes from a doubtful curve fit.

experiment: qHTS Screen for Compounds that Selectively Target Cancer Cells with p53 Mutations: Cytotoxicity of p53ts Cells at the Nonpermissive Temperature; conditions: H1299-p53A138V viability at 39C, ATP luminescence, 24 h; activity change, negative = cell killing: at 46.1 µM (top of the series); also: nearly all actives have a fitted effect of over 55% in size
% is scaled to controls: 0 for no effect and ±100 for the full control effect; potency is read from the fitted curve at half-maximal effect; tags tell the direction and shape of the fitted curve.

Row | Compound | Potency | activity change, negative = cell killing
1 | CC(C)OCc1cc(CN2CCN(c3cccc(C(F)(F)F)c3)CC2)c(O)c2ncccc12 | active: 15.8 µM | 
2 | Cc1cc(NC(=O)c2ccccc2)sc1C | inconclusive: 12.6 µM [cytotoxic, partial curve] | 
3 | CCOc1ccc(N/C=C/C(=O)c2ccccc2)c([N+](=O)[O-])c1 | active: 5.62 µM | 
4 | O=C1C(=O)N(Cc2ccc(Cl)c(Cl)c2)c2ccccc21 | active: 6.31 µM | 
5 | COc1ccc(C)c2sc(NC(=O)c3ccc(S(=O)(=O)N4CCCC4)cc3)nc12 | inconclusive: 1.58 µM [cytotoxic, single point] | 
6 | CCOc1ccc(S(=O)(=O)Nc2ccc3oc4c(c3c2)CC(C)CC4)cc1 (configuration not stated) | inconclusive: 14.1 µM [cytotoxic, partial curve] | 
7 | Cc1c(C(=O)OCc2ccccc2)[nH]c2c1C(=O)CC(c1ccc(Cl)cc1)C2 (configuration not stated) |  | inactive: -21.2%
8 | CN(C)CCC=C1c2ccccc2C=Cc2ccccc21 | inconclusive: 12.6 µM [cytotoxic, partial curve] | 
9 | CN(C)c1ccc(CNC(=O)C2COc3ccccc3C2)cc1 (configuration not stated) | inconclusive: 20 µM [cytotoxic, partial curve, poor fit] | 
10 | O=C(CSc1ncccc1C(=O)Oc1ccccc1Cl)Nc1ccccc1Cl | inconclusive: 7.94 µM [cytotoxic, partial curve] | 
11 | Cc1cc(Cl)ccc1OCC(=O)N1CC(C)CC(C)C1 (configuration not stated) | inconclusive: 20 µM [cytotoxic, single point] | 
12 | Cc1nn(Cc2ccccc2Cl)c(C)c1C(=O)Nc1nnc(C2CC2)s1 | inconclusive: 3.16 µM [cytotoxic, full curve] | 
13 | CCC(=O)Nc1cccc(NC(=O)CSc2nnc(C(C)C)n2CC)c1 |  | inactive: 8.79%
14 | COc1ccc(-c2noc(-c3ccccc3F)n2)cc1 | inconclusive: 31.6 µM [cytotoxic, single point] | 
15 | Nc1ccc(C(=O)Oc2ccccc2)c(O)c1 | inconclusive: 10 µM [cytotoxic, partial curve] | 
16 | COc1ccccc1NC=C1C(=O)OC(C)(C)OC1=O |  | inactive: 10.4%
17 | Cc1ccc(C)c(-c2ccc(=O)n(Cc3c(F)cccc3Cl)n2)c1 | inconclusive: 12.6 µM [cytotoxic, partial curve] | 
18 | COc1ccc(-c2nc3scc(CCNS(=O)(=O)c4ccc5c(c4)OCCO5)n3n2)cc1 | inconclusive: 0.0063 µM [cytotoxic, full curve, poor fit] | 
19 | O=C(c1[nH]o[n+](=O)c1C(=O)c1csc2ccccc12)c1csc2ccccc12 | inconclusive: 6.31 µM [cytotoxic, single point] | 
20 | COC(=O)CNc1c(-c2ccccn2)nc2ccc(Br)cn12 | active: 12.6 µM | 
21 | CCCCCCCCCCCCCCC[C@@H](O)[C@@H](N)CO | inconclusive: 31.6 µM [cytotoxic, partial curve] | 
22 | Cc1ccc(C(=O)Nc2ccccc2N2CCOCC2)c(C)c1 |  | inactive: -8.32%
23 | Cc1ccc(S(=O)(=O)c2c(O)cc(C)c(NS(=O)(=O)c3ccc(Cl)cc3)c2C)cc1 | inconclusive: 31.6 µM [cytotoxic, single point] | 

Row | Compound | Potency | activity change, negative = cell killing
24 | CC(C)Cn1c(N)c(C(=O)NCc2cccs2)c2nc3ccccc3nc21 | inconclusive: 25.1 µM [cytotoxic, single point] | 
25 | Cc1cc(C)c2sc(N3CCN(C(=O)c4ccc(N(C)C)cc4)CC3)nc2c1 |  | inactive: -8.19%
26 | CS(=O)(=O)Nc1cccc(C(=O)CC2(O)C(=O)Nc3ccc(Br)cc32)c1 (configuration not stated) | inconclusive: 25.1 µM [cytotoxic, single point] | 
27 | O=C(/C=C/c1c[nH]c2ccccc12)c1cccc2ccccc12 | inconclusive: 25.1 µM [cytotoxic, single point] | 
28 | COc1ccc(Nc2cc(C(=O)NCCCN3CCN(c4ccccc4F)CC3)c3ccccc3n2)c(OC)c1 | inconclusive: 15.8 µM [cytotoxic, single point] | 
29 | COc1ccc(NC(=S)N/N=C2\CC(C)(C)Oc3ccc(O)cc32)cc1 | inconclusive: 20 µM [cytotoxic, single point] | 
30 | COc1ccc2c(c1)sc(N)[n+]2Cc1cc(C)cc2cccnc12 | active: 11.2 µM | 
31 | Cc1ccc(Cn2c(CO)cnc2SCC(=O)Nc2ccc(C)c(Cl)c2)cc1 | active: 12.6 µM | 
32 | CCn1c2c(c(=O)n3ncc(C(=O)N4CCN(c5ccc(Cl)cc5)CC4)c13)CN(Cc1ccc(OC)cc1)CC2 |  | inactive: -22.8%
33 | Nc1cc(S(N)(=O)=O)ccc1SSc1ccc(S(N)(=O)=O)cc1N |  | inactive: -15.9% [at 9.22 µM]
34 | COC(=O)c1ccc(NC(=O)CC2C(=O)N(c3ccccc3)C(=O)N2Cc2ccc(F)cc2)cc1 (configuration not stated) |  | inactive: -8.47%
35 | Cc1cccc(CNc2ccnc(-c3ccc(N(C)C)cc3)n2)c1 | inconclusive: 12.6 µM [cytotoxic, partial curve] | 
36 | Cc1nnc(SCC(=O)Nc2nsc(-c3ccccc3)n2)s1 |  | inactive: 11.3%
37 | O=C(Cn1ncc2c3ccccc3n(Cc3cccc(Cl)c3)c2c1=O)Nc1ccc(F)cc1F | inconclusive: 15.8 µM [cytotoxic, partial curve] | 
38 | CC(C)(C)c1ccc(Cn2nnc3c(=O)[nH]c(C4CCN(C(=O)Cc5cccs5)CC4)nc32)cc1 | active: 15.8 µM | 
39 | N#CC1(Nc2ccc(-c3ccc(NC4(C#N)CCCC4)cc3)cc2)CCCC1 |  | inactive: 16.1% [at 9.22 µM]
40 | O=C(Cn1ccn(-c2ccc(F)cc2)c(=O)c1=O)Nc1ccc(F)cc1 | inconclusive: 1.41 µM [cytotoxic, partial curve] | 
41 | COc1ccccc1N1CCN(c2csc3ccccc3c2=O)CC1 | inconclusive: 10 µM [cytotoxic, partial curve] | 
42 | CCOc1ccc(/C=C/c2nc(C#N)c(N3CCC(C)CC3)o2)cc1 |  | inactive: -20.3%
43 | CCc1ccc(Sc2cc(C(=O)NCCCN3CCC(C)CC3)c3ccccc3n2)cc1 | inconclusive: 31.6 µM [cytotoxic, single point] | 
44 | CCOc1ccc(-c2n[nH]c(C)c2Oc2ccc(OC)cc2)c(O)c1 | inconclusive: 31.6 µM [cytotoxic, single point] | 
45 | Cc1ccc(-c2cc3nc4c(c(=O)n3[nH]2)CCCC4)cc1 | inconclusive: 2.51 µM [cytotoxic, full curve] | 
46 | COc1ccc(OC)c(N=c2oc3cc(O)ccc3cc2C(N)=O)c1 | inconclusive: 10 µM [cytotoxic, single point] | 

Row | Compound | Potency | activity change, negative = cell killing
47 | CCCOc1ccc(CNC(=O)C2CCN(C(=O)c3sccc3-n3cccc3)CC2)cc1 | inconclusive: 20 µM [cytotoxic, partial curve] | 
48 | CCOC(=O)c1ccc2c(c1)N(Cc1ccc(F)cc1Cl)C(=O)c1ccccc1S2 |  | inactive: -23.5%
49 | CN(C)c1ccc(NC(=O)c2cccc(N3C(=O)CCC3=O)c2)cc1 | inconclusive: 12.6 µM [cytotoxic, single point] | 
50 | COc1cccc(NC(=O)N(Cc2cn(C)c3ccccc23)C2CCCCCC2)c1 | inconclusive: 15.8 µM [cytotoxic, single point] | 
51 | CCN1CCN(c2cc(C)c3cc(NC(=O)/C=C/c4ccc(C)cc4)ccc3n2)CC1 | active: 3.16 µM | 
52 | Cc1ccc(C)n1-c1nnc(N2CCCC(C(=O)NCc3cccc(Br)c3)C2)s1 (configuration not stated) | inconclusive: 15.8 µM [cytotoxic, single point] | 
53 | CCCCCCCCCCCCC/C=C\[C@@H](O)[C@@H](N)CO | inconclusive: 31.6 µM [cytotoxic, partial curve] | 
54 | CN(Cc1ccccc1)c1nc2c(c(=O)[nH]c(=O)n2C)n1Cc1ccccc1 |  | inactive: 4.22%
55 | Cc1oc(-c2ccc(Cl)cc2)nc1CN1CCCC(C(=O)NCCc2ccccc2)C1 (configuration not stated) | inconclusive: 12.6 µM [cytotoxic, single point] | 
56 | COc1ccc(-c2nc(C)c(CCNS(=O)(=O)c3ccc(F)cc3)s2)cc1OC | inconclusive: 7.94 µM [cytotoxic, full curve, poor fit] | 
57 | Cc1ccc(C(=O)Nc2sc3c(c2C(=O)O)CCCCC3)o1 | active: 6.31 µM | 
58 | Cc1ccc(-n2ncc(C(=O)NC3CCCCC3)c2C2CCN(C(=O)OC(C)(C)C)CC2)cc1 |  | inactive: -25.7%
59 | CCCS(=O)(=O)c1ncc(Cl)c(C(=O)Nc2c(C(=O)Nc3ccccc3)oc3ccccc23)n1 | active: 6.31 µM | 
60 | COc1ccc(N(C)C(=O)c2cc3c(s2)-c2c(C)cccc2OC3)c(OC)c1 | inconclusive: 6.31 µM [cytotoxic, full curve] | 
61 | CCc1nc(SCC(=O)N2CCN(C(=O)c3ccco3)CC2)c2c3c(sc2n1)CCCC3 | inconclusive: 31.6 µM [cytotoxic, single point] | 
62 | Nc1nc(CSc2ncn(-c3ccccc3)n2)cs1 |  | inactive: -6.5%
63 | CC[C@]1(O)C[C@H]2CN(CCc3c([nH]c4ccccc34)[C@](C(=O)OC)(c3cc4c(cc3OC)N(C)[C@@H]3[C@](O)(C(=O)OC)[C@H](OC(C)=O)[C@]5(CC)C=CCN6CC[C@]43[C@@H]65)C2)C1 | inconclusive: 7.94 µM [cytotoxic, partial curve] | 
64 | Fc1ccc(C(NCCc2ccccc2)c2nnc(-c3ccccc3Cl)o2)cc1 (configuration not stated) |  | inactive: -18.4%
65 | Cc1ccc2nc(-c3cccc(NC(=O)c4ccc5c(c4)OCCO5)c3)oc2c1 | inconclusive: 0.251 µM [cytotoxic, full curve, poor fit] | 
66 | Cc1ccc(C)c(CN2CCCN(CC(=O)Nc3ccc(C)c(C)c3)S2(=O)=O)c1 | inconclusive: 12.6 µM [cytotoxic, partial curve, poor fit] | 
67 | Cc1ccccc1OCCCCn1c(CCNC(=O)C(C)(C)C)nc2ccccc21 | inconclusive: 2 µM [cytotoxic, partial curve, poor fit] | 
